Laboratory results published in the supplement of paper PMC11417369.
± gives the standard deviation of the averaged measurements. The list shows a part of the results.

test system: PfAP2-I AP2 domain 3 (GST-tagged); assay: gcPBM binding intensity (ln(normalized median fluorescence intensity)); higher = stronger DNA binding
How it was run: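 The binding buffer was 1× PBS containing 1% milk, 0.2 mg/ml BSA, 0.5% salmon testes DNA and 0.03% Triton X-100. In it, GST-tagged P. falciparum DNA-binding domains expressed in E. coli were applied for 1 h to an Agilent 4 × 180k array of primer-extended double-stranded 36-bp intergenic genomic probes plus negative controls. Binding intensity, read with Alexa488 anti-GST antibody and a 488 nm scan, is the highest Masliner-normalised natural-log median intensity across replicate spots of either probe orientation.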

Sequence	gcPBM binding intensity (ln)
ATAATCCTTAGACACACACACACACGAATAAATAAA [CACACA_site6364]	8.05 ± 0.4
CGAAAAAATAAAAAAAAAATAAAATAAAATAAATAA [TGCATGCA_negctrl_site278]	7.4 ± 0.4
CAATATATTTGATTTACACACTTACAATGTATTTAA [CACACA_site5632]	7.67 ± 0.64
TCTGTAAATATGTATACACACATATATGATCAATAT [CACACA_site3234]	7.87 ± 0.52
AGTAGAAAAGGAACATGTACGAATTAAAAAAATAAT [XGTACX_site2347]	8.08 ± 0.72
AATTAAATGATTTATACATGCATATAAATATAAATA [TGCATGCA_site579]	7.96 ± 0.59
TACACCATGATACATACACACAGACATATACACATT [CACACA_site6601]	8.02 ± 0.45
ACATATATATATATATATATATATATATTTATTTAT [CACACA_negctrl_site734]	8.43 ± 0.26
AAAAAACATTTGATCTGTACGCATAGACAATTATAT [XGTACX_site960]	7.75 ± 0.46
AATAATATGTTATCTCTTACACATATAAAAAATAAA [XGTACX_negctrl_site370]	7.38 ± 0.43
TAAAAGAAAGCACATACACACACAAAAAAAAAAAAG [CACACA_site8159]	8.16 ± 0.35
TATCCTTATATTTGCACACACACACCCTAAAATGAA [CACACA_site1029]	9.88 ± 0.27
TTTATATTTAAAAGGATGCACTACAAATTCTAAATA	8.95 ± 0.18
AAAACAAACAGACACACACACATATTTATATTTATA [CACACA_site7681]	7.81 ± 0.37
TTATATTAAACAAACACACACATATAAATATAAATA [CACACA_site7174]	7.95 ± 0.41
AAGACAAATATGAAGAGTACATTTATATAAAAATTA [XGTACX_site5142]	7.61 ± 0.5
CTACAATATCTTTAAAGTACTTTTATATAACTACCA [XGTACX_site6119]	7.92 ± 0.47
ATATATTTTTATGTAGTGCATTTAAATAATAAATGC	10.7 ± 0.55
ATTTTTTCCAATTCTTTACCTTAGAAAGGTGTTCAA [CACACA_negctrl_site1401]	7.72 ± 0.82
ATTCTAAATAAATGTACACACAAAAATAAATGTATA [CACACA_site1732]	7.92 ± 0.22
ATATATATATAATGAAGTACGAAAAAATAAGAAATG [XGTACX_site4001]	8.91 ± 0.24
ACCTCATAATATTTAACACACAAAATTATATGTATG [CACACA_site1704]	7.86 ± 0.44

Sequence	gcPBM binding intensity (ln)
AATGATCAGATATACACACACACAAAAAAAAAAAAA [CACACA_site7806]	7.96 ± 0.67
GTAAATAAATAAATAAATAAATATATATATATATAT [CACACA_negctrl_site1737]	9.41 ± 0.37
AATAAAAAAAAATTCACACAAAGTTAGATTAACTAT [CACACA_site4224]	7.39 ± 0.54
CACAAAAATTTATACACACACATATAAAATATAGAT [CACACA_site6218]	7.85 ± 0.26
AGTTATTACACACAAACATGCATTAATATCAAAAAA [TGCATGCA_site63]	8.45 ± 0.4
TTCACTATACAAAGGTGTACTTAATTTTGTCCCATT [XGTACX_site7483]	7.92 ± 0.47
AATTCACATGTGAACTAAAAGAATATTATATATATA [CACACA_negctrl_site1632]	8.64 ± 0.36
AAATATATATATAGTACATGCAGTAGATAATTTAAT [TGCATGCA_site299]	8.44 ± 0.93
ATTAGGTATTTTTTTTGTACATATTATATAATGTGA [XGTACX_site3815]	7.79 ± 0.74
TAAAATATACAAATTTGTACATATATATGTATGTAT [XGTACX_site1127]	7.94 ± 0.49
TGCAGGTGTTATTCACGTACGCATTTGATTAAAAAA [XGTACX_site7743]	8.53 ± 1.1
TAATTTTATATAAATTGTACAAAAATATTTTATTAA [XGTACX_site7166]	7.62 ± 0.3
ATTAGAAAATAAAATAATAAATAAAATAAAAAAAAA [CACACA_negctrl_site409]	7.49 ± 0.82
ATAAAAACATAAAAATGTACATATATATATATATAT [XGTACX_site7165]	9.2 ± 0.55
GTGTTGGGAAAAGGCATGCACTTTTTTTTTTTTTTT	9.08 ± 0.61
ATGTATATGCAAACATGTACATATATAAACATATAT [XGTACX_site4159]	7.88 ± 0.69
AATATTAGGTTATGTAGTACATAACAATAATTATAC [XGTACX_site5733]	8.05 ± 0.48
AAGGAATATGTATATACACACAGGTACATATTTATA [CACACA_site6344]	7.86 ± 0.47
ATAAAGAATATAAATACACACTTAAATATATATTAT [CACACA_site6071]	7.64 ± 0.44
AATAAGAATTAAAAATGTACAAAAAAATGTATTTAT [XGTACX_site8005]	7.64 ± 0.63
AAGTATAAAATATTTTGTACTTAAAAAATTATATGG [XGTACX_site2180]	7.72 ± 0.35
TTTTTTTTTTTTGGTAGTACATAAATATTTTATGGA [XGTACX_site6851]	8.26 ± 0.57

Sequence	gcPBM binding intensity (ln)
AGTGGGATTTTTAATTGTACATAAATAATATCATAA [XGTACX_site4163]	8.04 ± 0.4
CATGTTATATATATATGTACTAAAAATATAATATAA [XGTACX_site1978]	7.76 ± 0.49
CAATAAATAATAAATACATGCAAGTATGAAGATATA [TGCATGCA_site859]	7.86 ± 0.67
TATATATATTTTAACACACACATATATATATTTATA [CACACA_site2765]	8.06 ± 0.49
TGTTTGATGGTACACGTACACACCTTGCAAATATTT [CACACA_site888]	8.24 ± 0.67
AATATAAAATAGAAAAATGAAAAAAAAAAAAAGGGT [CACACA_negctrl_site1263]	8.21 ± 0.62
TATGAATATTGCATGTGTACCTATTATCCTTTTAAA [XGTACX_site4311]	8.05 ± 0.6
ATAATTATTTTCCCGTGTACTTATTTTTTTCAAGTA [XGTACX_site8843]	8.29 ± 0.59
ATATAAAATAAAAAAAAAAAAAAAAAAAAAAAAAAA [CACACA_negctrl_site1234]	8.35 ± 1.1
TAATTAAAAAATGAATAAATGAATAAATAAATAAAT [CACACA_negctrl_site838]	7.66 ± 0.85
TTTTTGTATCCTTTTAATATTAAATAAAAGGAATGT [CACACA_negctrl_site1468]	7.76 ± 0.62
TTAATGTTTGAAAGAGTGCACATAACAAAAAAAAAA [GTGCAC_site9623]	10.48 ± 0.021
ACGTTGCGACGCAAGGTGCTTATTTTCTTATAAATA	9.19 ± 0.17
AACAAATTTTTTATTAAACACACAAACATATATATA [CACACA_site8588]	8.04 ± 0.73
GCTCATTGAAATTATACACACCAAATATATAAATAT [CACACA_site5385]	7.99 ± 0.49
TGTGAATATATCTTTAAAAAGGATAAATAATAATTT [CACACA_negctrl_site507]	7.44 ± 0.54
TTTTATTTTTTCTATACATGCATGTCCAATTTTCTT [TGCATGCA_site304]	8.03 ± 0.74
TTATGGTATAAAAAAATACACACTTATATATATTCT [CACACA_site488]	7.58 ± 0.53
GTTTTTTTATAAAATTTTTATATAATTCTTTTATAA [CACACA_negctrl_site1605]	7.72 ± 0.53
AAAAAAAAAAAAAACACACATACACGCCCACCCATA [CACACA_site3391]	8.64 ± 0.71
TAATAATAAAAAATACGTACATATTATTTATATATG [XGTACX_site853]	7.76 ± 0.12
CATTTTATTCTATATGCATGTTAAAAAATGTGTTGA [TGCATGCA_site128]	7.83 ± 0.51

Sequence	gcPBM binding intensity (ln)
ATATATAAGAACATATATATTGGAAATATTGAATTT [XGTACX_negctrl_site121]	7.93 ± 0.43
AATAAAAATATTATATGTACATATTTTAATATATAT [XGTACX_site1259]	7.73 ± 0.44
TTATATAACTTTTCTAGTACTTGTATAAATTCCTAC [XGTACX_site3685]	7.87 ± 0.57
AAAAAAAAAGAAAAACGTACGTTTATTTAATATATA [XGTACX_site4018]	7.34 ± 0.67
ATAATACCCATTATCTTACAACAAAATGCAAACAAA [CACACA_negctrl_site1037]	7.78 ± 0.44
AACATAATATCATATACACACAAAAATATTGAAATA [CACACA_site2160]	7.72 ± 0.52
AAGAACATATTATATACATGCATAATTCGATAGATT [TGCATGCA_site882]	7.9 ± 0.69
AAAATTAGATTATGCACACACACTTAAAAATAATAA [CACACA_site1975]	9.97 ± 0.46
TAATTATAATAATAACGTACATATATAAAATGGTGA [XGTACX_site8434]	8.04 ± 0.34
TTAAAATATGTAGCTACACACACATAAACAAAATAA [CACACA_site8244]	7.81 ± 0.55
TGTAGTCTGGAGAAAAGTACACAGTATCTGGTAGCT [XGTACX_site2012]	7.73 ± 0.78
TATATATATATATAGGTGCTATAATTTATATACACA	10.2 ± 0.3
TTTTTTTTTCTGAATTTATAATTCAAAAATATATAT [CACACA_negctrl_site300]	7.57 ± 0.67
AGCAGTTTTTTTTTTTTTTTTTTTTTTATTAAAAGC [XGTACX_negctrl_site392]	7.51 ± 0.53
TACTTATTTTTATAGCATTTCACGGAGGTAGTAATA [CACACA_negctrl_site468]	7.79 ± 0.47
ATAATAAATCATCATATTACATTTATCTTTGTTGGA [CACACA_negctrl_site849]	7.54 ± 0.69
AACTGTAATTTTATACGTACATAAATAATATTATAT [XGTACX_site4277]	8.17 ± 0.14
TTTGCAACATATAAAAGTACAAATAATATATTTATT [XGTACX_site890]	7.75 ± 0.38
TTTATTATATGCACACGTACATATAATATATATATA [XGTACX_site4108]	9.54 ± 0.52
ATCGGTATATTATTACATGAATAAACTTACACACAC [TGCATGCA_negctrl_site21]	8.98 ± 0.4
TTGTATTAATAATTTTTTATATTATAGTTTATAATA [GTGCAC_negctrl_site130]	7.73 ± 0.35
TATATATATAACATTGTACACACAAAGAAATAATAT [CACACA_site8998]	8.74 ± 0.39
